Reference: paper PMC6919601, “Identification of Plasmodium dipeptidyl aminopeptidase allosteric inhibitors by high throughput screening” (PLoS ONE, 2019)
“And” between values parts separate entries of the source, which are not always exact repeats. Equal entries are not always repeated. Hit rate of the full screen: of about 110,000 compounds, about 230 (0.21%) showed an effect of 50% or more. The list shows a part of the results.

Target: DPAP1 (Plasmodium falciparum, UniProt Q8IIJ9)
Experiment: primary screen, percent inhibition; read by cleavage of a fluorogenic dipeptide substrate; higher = more effect of the substance
Design: species or system P. falciparum D10 trophozoite lysates; single well
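Note: 30 min substrate incubation versus DMSO and 10 µM JCP410 controls.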

DPAP1, sequence (Q8IIJ9 whole entry, looked up): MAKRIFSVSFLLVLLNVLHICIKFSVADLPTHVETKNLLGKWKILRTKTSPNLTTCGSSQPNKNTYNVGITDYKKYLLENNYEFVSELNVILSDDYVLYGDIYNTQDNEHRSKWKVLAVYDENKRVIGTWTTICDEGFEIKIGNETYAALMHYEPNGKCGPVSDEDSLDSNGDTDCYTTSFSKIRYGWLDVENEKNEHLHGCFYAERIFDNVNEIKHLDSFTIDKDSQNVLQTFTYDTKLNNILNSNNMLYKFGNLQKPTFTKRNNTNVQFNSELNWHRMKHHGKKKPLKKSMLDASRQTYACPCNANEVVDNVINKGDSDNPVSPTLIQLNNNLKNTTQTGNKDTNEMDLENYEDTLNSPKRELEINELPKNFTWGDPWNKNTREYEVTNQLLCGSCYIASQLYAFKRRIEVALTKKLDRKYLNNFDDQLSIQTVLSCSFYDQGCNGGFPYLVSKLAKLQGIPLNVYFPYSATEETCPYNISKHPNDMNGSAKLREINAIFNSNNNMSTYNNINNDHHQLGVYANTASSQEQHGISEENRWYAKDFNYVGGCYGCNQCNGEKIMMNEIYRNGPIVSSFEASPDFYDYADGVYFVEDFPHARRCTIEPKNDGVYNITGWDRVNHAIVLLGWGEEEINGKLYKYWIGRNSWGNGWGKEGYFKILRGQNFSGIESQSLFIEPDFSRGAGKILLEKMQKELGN

Structure (SMILES) | % Inhibition @ 10 uM
COc1ccc(CC(=O)N2CCC3(CC2)N=C(c2ccccc2)C(=O)N3)cc1 | 3.24%
Cc1ccc2onc(CNC(=O)NCCc3ccc(Cl)cc3)c2c1 | -1.97%
O=C(O)c1ccc(/C=C/c2ccc3cccc(O)c3n2)cc1 | 7.26%
COc1ccc(CNC(=O)C2CCN(S(C)(=O)=O)CC2)c(OC)c1 | 0.387%
Cc1ccc2oc(=O)c3cc(C(=O)N4CC(C)CC(C)C4)sc3c2c1 (centres unmarked) | -2.75%
CC(C)CCNC(=O)c1ccc2nc(-c3ccco3)c(-c3ccco3)nc2c1 | 10.7%
CC1(C)CC(=O)C(/C=N/Cc2ccc(F)cc2)=C(O)C1 | 8.01%
Cc1cc(C)nc(NS(=O)(=O)c2ccc(NC3=NC(=O)CS3)cc2)n1 | -1.51%
CCCNC(=O)C1CCN(c2nc3c(C)cc(C)cc3s2)CC1 | -5.19%
CCOC(=O)C1=C(CN2CCC(C)CC2)NC(=O)NC1c1ccc(C)cc1 (centres unmarked) | 3.47%
CCOC(=O)c1c(NC(=O)c2cc(=O)c3cc(Cl)ccc3o2)sc2c1CCCC2 | 0.248%
Fc1ccc(CN2CCN(c3ccccc3Cl)CC2)cc1Br | -1.86%
O=C(CNS(=O)(=O)c1ccc(Br)cc1)N1CCN(Cc2ccccc2)CC1 | 10.8%
Cc1ccc(NCC2COc3c(C)cccc3C2=O)cc1 (centres unmarked) | -6.68%
CC(C)N(Cc1nc(-c2ccccc2)no1)C(=O)c1ccccc1-c1ccccc1 | 3.84%
COc1ccccc1CNC(=O)C1CCCN(Cc2cnn(-c3ccccc3)c2-n2cccc2)C1 (centres unmarked) | 5.23%
CCCN1CCN(C(=O)Cn2cnc3onc(-c4ccc(F)cc4)c3c2=O)CC1 | -7.87%
CN1CCN(C(=O)C2CCC(CNS(=O)(=O)c3cccc4cccnc34)CC2)CC1 (centres unmarked) | -0.692%
COc1ccc(-c2cc(C(=O)O)c3c(-c4ccc(F)cc4)[nH]nc3n2)cc1Br | -3.27%
O=c1c2ccccc2nc2c3ccccc3c(N3CCCCCC3)nn12 | 8.74%
CCCCCNC(=O)Nc1cccc(Cl)c1 | -0.192%
COc1ccccc1/C=C1/N=C(c2cccc3ccccc23)OC1=O | -3.44%
CC(C)(C)c1ccc(C(=O)Nc2c(O)oc3ccccc3c2=O)cc1 | -2.12%
Cn1c(Cl)c[n+](C)c1C(O)c1ccccc1 (centres unmarked) | -0.615%
c1cncc(-c2nc3c4ccccc4nc(NCC4CCCO4)n3n2)c1 (centres unmarked) | -2.42%

Structure (SMILES) | % Inhibition @ 10 uM
CCCOc1ccc(C(N)CC(=O)O)cc1OC (centres unmarked) | 1.62%
Cc1nn(CC(=O)NC2CCN(Cc3ccccc3)CC2)c(=O)c2nn(-c3ccccc3)c(C)c12 | -3.81%
O=C1c2cccc(Cl)c2C(=O)N1c1cccc(Cl)c1 | -6.59%
COc1cccc(-c2noc(CCC(=O)N3CCN(c4ccc(N5CCOCC5)nn4)CC3)n2)c1 | -1.7%
CC1(C)CC(=O)C2=C(C1)OC(N)=C(C#N)C2c1ccc(COc2cccc(C(F)(F)F)c2)o1 (centres unmarked) | -3.77%
O=C(NCCc1cccs1)C1CCN(C(=O)c2ccc(-n3ccc4ccccc43)s2)CC1 | 7.43%
CCOC(=O)c1c(C)n(CC(C)C)c2ccc(O)cc12 | 0.51%
O=C(CCNS(=O)(=O)c1ccc(Br)s1)N1CCc2ccccc2C1 | -5.52%
Cc1cccc(CCNC(=O)Cn2ncc3c4ccccc4nc-3c2O)c1 | -3.73%
CC1CCCN(S(=O)(=O)c2cccc3nsnc23)C1 (centres unmarked) | 2.06%
CCOc1ccc(C(=O)Nc2cc(C)cc(C)n2)cc1 | 5.08%
CSc1ccccc1NC(=O)CN(C)S(=O)(=O)c1ccc(C)cc1 | -5.01%
OCCN1CCN(Cc2c(Cl)cccc2Cl)CC1 | -0.505%
O=C(O)CC(c1ccc(Cl)cc1)n1cnnn1 (centres unmarked) | -0.403%
COCCCNC(=O)CCc1nnc2n(Cc3ccc(F)cc3)c(=O)c3ccccc3n12 | 2.6%
COc1ccc(S(=O)(=O)Nc2cccc(Cl)c2C)cc1 | 2.22%
COc1ccc(CC(C)NCc2ccco2)cc1 (centres unmarked) | 0.472%
O=C(NCCCN1CCCC1)C(Cc1ccccc1)N1Cc2ccccc2C1=O (centres unmarked) | 1.6%
COc1ccc(-c2cc(C(=O)N3N=C(C(F)F)CC3(O)C(F)F)c3ccccc3n2)c(OC)c1 (centres unmarked) | 5.61%
Cc1cc(C)nc(Oc2ccc(Br)cc2Br)n1 | 6.51%
CCCCCNC(=O)C(C)Oc1ccc(Cl)cc1C (centres unmarked) | 1.03%
C=CCOC(=O)C1=C(C)N(CC)C(=O)NC1c1ccc(Br)cc1 (centres unmarked) | -4.5%
COc1cccc(NC(=O)CNS(=O)(=O)c2ccc(Cl)cc2)c1 | -1.98%
CCN(CC)CC(O)Cn1c2c(c3cc(C)ccc31)CCCC2=O (centres unmarked) | -3.75%
O=C1N/C(=C/c2ccc(-c3ccccc3)o2)C(=O)N1Cc1ccccc1F | 1.63%

Structure (SMILES) | % Inhibition @ 10 uM
COC(=O)C1=C(C)OC(N)=C(C#N)C1c1ccc(Cl)cc1 (centres unmarked) | 5.09%
COc1ccc(S(=O)(=O)/N=C2/C(C)=CC(=O)C(S(=O)(=O)c3ccccc3)=C2C)cc1 | 8.01%
COCc1[nH]nc2c1C1(CCN(C(=O)c3ccccc3)CC1)C(C#N)=C(N)O2 | 0.628%
CC(C)C[C@H](NC(=O)OCc1ccccc1)C(=O)NC(C#N)c1cccnc1 (some centres unmarked) | 3.01%
CCCn1c(C(C)NC(=O)c2cccc(C)c2)nc2ccccc21 (centres unmarked) | 18.5%
CC(C)C[C@H](NC(=O)OCc1ccccc1)C(=O)NNC(=O)c1csc([C@H](CC(C)C)NC(=O)OCc2ccccc2)n1 | 0.744%
CCOC(=O)c1cc(-c2ccc(C)cc2)n(CCC(=O)NCc2ccc(F)cc2)c1C | 0.0579%
CNc1cc(C)c(C#N)c2nc3ccccc3n12 | 4.26%
COc1ccc2c(c1)CC(N1CCN(CCCO)CC1)c1cc(SC)ccc1S2 (centres unmarked) | -10.5%
O=c1[nH]c2ccccc2c(=O)n1CCc1ccccc1 | -5.54%
CCOc1ccc(C2C(C#N)=C(N)OC3=C2C(=O)CCC3)cc1OCC (centres unmarked) | -0.941%
N#CC1=C(N)N(c2cccnc2Cl)C2=C(C(=O)CCC2)C1c1cc(Cn2cncn2)cs1 (centres unmarked) | 4.31%
O=C(CN1C(=O)c2ccccc2S1(=O)=O)Nc1cc(Cl)ccc1Cl | -0.46%
N#CCSc1nc2ccccc2c(=O)n1CC1CCCC1 | -3.19%
CCCCN(CCCC)c1c(NC2CCN(C(=O)OCC)CC2)c(=O)c1=O | 3.54%
CCOc1cccc(N2C(=O)CC(N3CCN(c4ccc(OC)cc4)CC3)C2=O)c1 (centres unmarked) | -2.8%
O=C(NCCCN1CCc2ccccc2C1)C1CCN(c2ncnc3c2nc2n3CCCCC2)CC1 | 3.05%
COc1ccc(CN2CCN(c3cc(C)c(C#N)c4nc5ccccc5n34)CC2)cc1 | -6.95%
O=C1CC(c2ccccc2Cl)C2=C(CC(c3cccs3)CC2=O)N1 (centres unmarked) | 5.86%
C=CCn1c(SCCCCCC)nc2c1c(=O)[nH]c(=O)n2C | -4.64%
CC1=C(C(=O)Nc2ccc(F)cc2F)C(c2cccnc2)C2=C(O)CC(C)(C)CC2=N1 (centres unmarked) | -3.69%
O=C(/C=C/c1ccccc1)Nc1nnc(S(=O)(=O)N2CCOCC2)s1 | 1.68%
COCCN1C(=O)c2ccccc2C(C(=O)NC2CCCc3ccccc32)C1c1cccs1 (centres unmarked) | 1.09%
CC(C)(C)SCCNC(=O)c1ccc(CN2CCc3ccccc3C2)cc1 | -0.0626%
Cc1ccc(Cn2nnc3c(O)nc(C4CCN(S(=O)(=O)c5cc(C)ccc5C)CC4)nc32)cc1 | -4.07%

Structure (SMILES) | % Inhibition @ 10 uM
COc1ccccc1N1CCN(C(=O)c2ccc(C)c(C)c2)CC1 | -5.13%
c1ccc(CNC2=Nc3ccccc3CCC2)cc1 | 1.24%
NC(=O)COc1ccccc1/C=C1/SC(=O)N(CC(=O)N2CCc3ccccc3C2)C1=O | 6.18%
Cc1c(C(=O)Nc2ccccc2C(N)=O)cnn1C | 1.67%
CCN(Cc1ccccc1)C(=O)Cn1c(=O)cc(C)c2c(C)nn(-c3ccc(C)cc3)c21 | 0.762%
COC(=O)C1=C(O)/C(=C\c2ccc(CNS(=O)(=O)c3ccccc3)o2)N=C1C | 2.17%
COc1ccc(C2(CNC(=O)C(=O)NCc3ccco3)CCCC2)cc1OC | 3.27%
COc1ccc(OCC(O)CN2CCCCC2)cc1 (centres unmarked) | -1.29% and -2.97%
CCc1ccc(-c2nc(CN3CCCC(C(=O)NCc4ccccc4)C3)c(C)o2)cc1 (centres unmarked) | 0.689%
O=C1c2cnccc2CN1Cc1ccccc1 | 0.66%
O=C(O)CNC(=O)/C=C/c1cccc(C(F)(F)F)c1 | 2.35%
COC(=O)c1ccc(Br)c(S(=O)(=O)N2CCCCC2)c1 | 1.91%
COC(=O)C1=C(C)N=C(C)/C(=C(/O)OC)C1C(=O)O (centres unmarked) | 0.989%
Cc1ccc(C(=O)O)cc1NC(=O)c1cccs1 | -0.582%
c1ccc(CN2CCN(C3CCC(c4ccccc4)CC3)CC2)cc1 (centres unmarked) | 2.99%
Cc1cc(C)c(C(=O)CC2(C(F)(F)F)NCCN2)c(O)n1 | 3.38%
CCn1c(SCc2nc(-c3ccc(Br)cc3)no2)nnc1-c1ccco1 | 1.74%
C=CCn1c(COc2ccccc2C)nc2ccccc21 | 9.83%
CCc1ccccc1N1C(=O)CC(Sc2nccc(C)n2)C1=O (centres unmarked) | 2.95%
C=CCn1c(SCC(=O)NCc2ccc3c(c2)OCO3)nc2sc3c(c2c1=O)CCCC3 | -1.6%
O=C(CN1C(=O)c2cccc3cccc(c23)C1=O)NO | 0.878%
Cc1ccc(-n2c(C)cc(/C=C3\C(=N)N4N=C(S(C)(=O)=O)SC4=NC3=O)c2C)c(C)c1 | 0.208%
O=C(COCc1cc(-c2ccc(F)cc2)on1)NC1CCCc2ccccc21 (centres unmarked) | -8.55%
